# Measured values published in the BET-seq Pho4 binding data (Le et al. 2018).
# The other results are listed elsewhere or left out. These are noisy estimates, calculated here from bound and input reads.
# Target: T1, Pho4 (S. cerevisiae) (UniProt P07270)
# T1 sequence: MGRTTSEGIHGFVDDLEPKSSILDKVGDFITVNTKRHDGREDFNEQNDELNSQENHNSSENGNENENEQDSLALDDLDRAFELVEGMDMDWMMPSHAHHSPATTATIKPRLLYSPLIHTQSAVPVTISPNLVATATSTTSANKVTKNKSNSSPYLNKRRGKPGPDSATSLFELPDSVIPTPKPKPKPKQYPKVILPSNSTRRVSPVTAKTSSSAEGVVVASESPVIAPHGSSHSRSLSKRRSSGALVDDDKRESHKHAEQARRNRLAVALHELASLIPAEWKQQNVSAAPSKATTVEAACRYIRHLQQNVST
# Test: relative binding free energy (BET-seq); higher = weaker binding
# Conditions: reference: library average
row,Sequence,relative binding free energy
1,CGAGCCACGTGGGGTT,-0.17 kcal/mol
2,TGGGACACGTGAATGG,0.26 kcal/mol
3,AGATTCACGTGACGGG,0.35 kcal/mol
4,CTTGTCACGTGTACGG,0.06 kcal/mol
5,TTGAACACGTGTTGTG,0 kcal/mol
6,AGTGGCACGTGGTTAT,-0.16 kcal/mol
7,CAGGACACGTGTGGTG,-0.05 kcal/mol
8,TTAATCACGTGTGTTG,0.18 kcal/mol
9,TTAGTCACGTGATGTG,0.16 kcal/mol
10,TGGCACACGTGGACGG,0.17 kcal/mol
11,TAGTTCACGTGGGGAA,0.23 kcal/mol
12,CGAAGCACGTGTGTTA,0.02 kcal/mol
13,CGGTGCACGTGCTGCG,0 kcal/mol
14,GCATTCACGTGTGAGG,0.22 kcal/mol
15,AGGGTCACGTGAGTGC,0.15 kcal/mol
16,CGTCGCACGTGTGTAG,-0.16 kcal/mol
17,CTTGTCACGTGGGGTC,-0.03 kcal/mol
18,TTGAGCACGTGTAATA,0.02 kcal/mol
19,TAGGTCACGTGCGATG,0.06 kcal/mol
20,ATGGTCACGTGGTATG,0.02 kcal/mol
21,TGAGTCACGTGTTAGG,0.05 kcal/mol

row,Sequence,relative binding free energy
1,TTCAGCACGTGTGTAT,0.06 kcal/mol
2,ATTCGCACGTGTAGGG,-0.13 kcal/mol
3,GGATCCACGTGGGGGT,-0.08 kcal/mol
4,CCGGGCACGTGTGGCG,-0.03 kcal/mol
5,GGTGGCACGTGAGTAG,0.26 kcal/mol
6,AGGGGCACGTGAGCGT,-0.02 kcal/mol
7,ATAGGCACGTGTGGTT,-0.08 kcal/mol
8,GATTGCACGTGAGAGT,0.21 kcal/mol
9,TGCTGCACGTGGGCAG,-0.24 kcal/mol
10,TATATCACGTGATTTG,0.2 kcal/mol
11,TTTATCACGTGAGTGG,0.34 kcal/mol
12,ATAGTCACGTGGCTGG,0.03 kcal/mol
13,ATTGACACGTGTCTGG,0.03 kcal/mol
14,GAGGTCACGTGTCGAG,0.3 kcal/mol
15,TTATGCACGTGGGCGT,-0.19 kcal/mol
16,ATGGCCACGTGGGAGT,-0.16 kcal/mol
17,TGGGCCACGTGGGGTC,-0.12 kcal/mol
18,TATGGCACGTGGAGTT,-0.07 kcal/mol
19,ATATTCACGTGTATTG,0.2 kcal/mol
20,AGGTACACGTGGCGTA,0.03 kcal/mol
21,GTATCCACGTGTGGCG,0.18 kcal/mol

row,Sequence,relative binding free energy
1,GTGTGCACGTGGGTCA,-0.2 kcal/mol
2,ATGGACACGTGGTTGA,0.14 kcal/mol
3,TCAGGCACGTGGTATG,-0.21 kcal/mol
4,GAAAACACGTGGAGGT,0.05 kcal/mol
5,TTGGGCACGTGAACGG,0.04 kcal/mol
6,GAGGGCACGTGATCTG,0.11 kcal/mol
7,TAGGACACGTGCGGGC,0.08 kcal/mol
8,AATAGCACGTGCGGGT,-0.12 kcal/mol
9,TTGTCCACGTGAGTGG,0.32 kcal/mol
10,TTTGTCACGTGATCAA,0.09 kcal/mol
11,TGCCACACGTGTGTTG,0.12 kcal/mol
12,TGTGCCACGTGGTAGA,-0.09 kcal/mol
13,AGATGCACGTGCATGT,-0.04 kcal/mol
14,TTATTCACGTGGATAA,0.15 kcal/mol
15,AATGGCACGTGTCGAT,-0.07 kcal/mol
16,TGTGACACGTGTTGAT,0.05 kcal/mol
17,GCGGACACGTGGAGTT,0.1 kcal/mol
18,CTGGTCACGTGTGGGC,0.19 kcal/mol
19,TGTATCACGTGGATTG,0.07 kcal/mol
20,GCTAGCACGTGTAGGA,0.17 kcal/mol
21,CAGGGCACGTGGGGCA,-0.31 kcal/mol
